# From the supplement of paper PMC12645437, “Orthogonal IMiD-Degron Pairs Induce Selective Protein Degradation in Cells” (ACS Chemical Biology, 2025)
# The list shows a part of the results.
# B1: Q9UKT9 (peptide)
# chain: FCCDICGAFFTQKGNLLRHIKL
# B2: Q9UKT9 (peptide)
# chain: FHCPICGALFTQKGNLLRHIKL
# B3: Q9UKT9 (peptide)
# chain: FSCNICGAHFTQKGNLLRHIKL
# B4: Q9UKT9 (peptide)
# chain: FCCEICGHLFTQKGNLLRHIKL
# B5: Q9UKT9 (peptide)
# chain: FNCEICGHYFTQKGNLLRHIKL
# B6: Q9UKT9 (peptide)
# chain: FMCPQCGAYFTQKGNLLRHIKL
# B7: Q9UKT9 (peptide)
# chain: FTCNQCGAWFTQKGNLLRHIKL
# B8: Q9UKT9 (peptide)
# chain: FCCPICGALFTQKGNLLRHIKL
# B9: Q9UKT9 (peptide)
# chain: FKCEICGRVFTQKGNLLRHIKL
# B10: Q9UKT9 (peptide)
# chain: FICNQCGRPFTQKGNLLRHIKL
# B11: Q9UKT9 (peptide)
# chain: FQCPQCGASFTQKGNLLRHIKL
# B12: Q9UKT9 (peptide)
# chain: FQCSVCGHMFTQKGNLLRHIKL
# B13: Q9UKT9 (peptide)
# chain: FVCPICGAWFTQKGNLLRHIKL
# B14: Q9UKT9 (peptide)
# chain: FQCEQCGADFTQKGNLLRHIKL
# B15: Q9UKT9 (peptide)
# chain: FKCNVCGAGFTQKGNLLRHIKL
# B16: Q9UKT9 (peptide)
# chain: FGCDQCGAYFTQKGNLLRHIKL
# B17: Q9UKT9 (peptide)
# chain: FHCNQCGAEFTQKGNLLRHIKL
# B18: Q9UKT9 (peptide)
# chain: FRCNQCGHVFTQKGNLLRHIKL
# B19: Q9UKT9 (peptide)
# chain: LCCEICGFHCTQKGNLLRHIKL
# B20: Q9UKT9 (peptide)
# chain: FVCPICGRHFTQKGNLLRHIKL
# B21: Q9UKT9 (peptide)
# chain: FFCDVCGAHFTQKGNLLRHIKL
# B22: Q9UKT9 (peptide)
# chain: FNCSVCGHCFTQKGNLLRHIKL
# B23: Q9UKT9 (peptide)
# chain: FTCNQCGHAFTQKGNLLRHIKL
# B24: Q9UKT9 (peptide)
# chain: FACDVCGAKFTQKGNLLRHIKL
# B25: Q9UKT9 (peptide)
# chain: FVCDVCGALFTQKGNLLRHIKL
# B26: Q9UKT9 (peptide)
# chain: LLCEICGFHCTQKGNLLRHIKL
# B27: Q9UKT9 (peptide)
# chain: LKCPICGFPCTQKGNLLRHIKL
# B28: Q9UKT9 (peptide)
# chain: FYCPICGAVFTQKGNLLRHIKL
# B29: Q9UKT9 (peptide)
# chain: FGCPQCGAMFTQKGNLLRHIKL
# B30: Q9UKT9 (peptide)
# chain: FICSVCGHKFTQKGNLLRHIKL
# B31: Q9UKT9 (peptide)
# chain: FCCPICGRCFTQKGNLLRHIKL
# B32: Q9UKT9 (peptide)
# chain: FTCNVCGAQFTQKGNLLRHIKL
# B33: Q9UKT9 (peptide)
# chain: FCCNQCGRTFTQKGNLLRHIKL
# B34: Q9UKT9 (peptide)
# chain: LHCEICGFQCTQKGNLLRHIKL
# B35: Q9UKT9 (peptide)
# chain: FSCPICGRSFTQKGNLLRHIKL
# B36: Q9UKT9 (peptide)
# chain: FRCSVCGHVFTQKGNLLRHIKL
# B37: Q9UKT9 (peptide)
# chain: FNCPICGRSFTQKGNLLRHIKL
# B38: Q9UKT9 (peptide)
# chain: FNCPQCGALFTQKGNLLRHIKL
# B39: Q9UKT9 (peptide)
# chain: FHCPICGHFFTQKGNLLRHIKL
# B40: Q9UKT9 (peptide)
# chain: FLCNQCGANFTQKGNLLRHIKL
# B41: Q9UKT9 (peptide)
# chain: FFCDICGAWFTQKGNLLRHIKL
# B42: Q9UKT9 (peptide)
# chain: FFCPICGHDFTQKGNLLRHIKL
# B43: Q9UKT9 (peptide)
# chain: FVCPVCGAGFTQKGNLLRHIKL
# B44: Q9UKT9 (peptide)
# chain: FWCNQCGAMFTQKGNLLRHIKL
# B45: Q9UKT9 (peptide)
# chain: FDCSVCGHRFTQKGNLLRHIKL
# B46: Q9UKT9 (peptide)
# chain: FQCEVCGAQFTQKGNLLRHIKL
# B47: Q9UKT9 (peptide)
# chain: FKCPICGHPFTQKGNLLRHIKL
# B48: Q9UKT9 (peptide)
# chain: FSCSVCGHKFTQKGNLLRHIKL
# B49: Q9UKT9 (peptide)
# chain: FCCEICGATFTQKGNLLRHIKL
# B50: Q9UKT9 (peptide)
# chain: FVCPICGHRFTQKGNLLRHIKL
# Molecular target: no compound (DMSO)
# Test: log2 fold change of degron read counts, EGFP-low vs EGFP+ sorted cells; higher = lower degron-EGFP level without compound (poor expression or instability)
# Conditions: compound: DMSO control; 18 h
# 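Also: jurkat cells carrying a lentiviral library of mutant zinc finger degrons fused to EGFP plus mCherry, mCherry+ cells FACS sorted, degron abundance counted by next-generation sequencing.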
row,Sequence,log2 fold change of degron read counts
1,B1,-0.95
2,B2,0.0289
3,B3,0.151
4,B4,-1.41
5,B5,-0.0124
6,B6,0.0656
7,B7,0.00869
8,B8,-0.148
9,B9,-3.04
10,B10,-0.333
11,B11,-0.852
12,B12,-0.751
13,B13,0.938
14,B14,-2.22
15,B15,-0.729
16,B16,0.161
17,B17,-1.03
18,B18,0.0806
19,B19,-0.0205
20,B20,-0.368
21,B21,-0.726
22,B22,0.163
23,B23,-0.662
24,B24,-0.72
25,B25,-1.4

row,Sequence,log2 fold change of degron read counts
1,B26,0.0233
2,B27,1.51
3,B28,0.489
4,B29,0.303
5,B30,-1.23
6,B31,0.364
7,B32,-0.625
8,B33,-0.272
9,B34,-0.125
10,B35,-0.512
11,B36,-0.0479
12,B37,-0.571
13,B38,-0.505
14,B39,0.0812
15,B40,-0.595
16,B41,0.672
17,B42,-0.45
18,B43,-0.85
19,B44,0.391
20,B45,-0.617
21,B46,-1.37
22,B47,-0.241
23,B48,-1.33
24,B49,-1.42
25,B50,-0.912
